In the supplement of paper PMC7125110:
Variants at the background level are over-represented here.

B1: glmS ribozyme (parent)
chain: AUAAAAGCGCCAGAACUACAGAAAUGUAGUUGACGAGGAGGAGGUUUAUCGAAUUUUCGGCGGAUGCCUCCAAA

Columns and labels:
Conditions in all cases: with glucosamine-6-phosphate
glucosamine-6-phosphate [1] = variants of: B1; assay: self-cleavage kobs at 640 uM GlcN6P; higher = faster cleavage; RNA array
Summary of the method: (§1)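 E. coli RNA polymerase transcribed barcoded ribozyme variants in situ on sequenced MiSeq chips, which were tracked via a hybridised Cy3 probe at 37 °C. Tiles were imaged over ~14 h after glucosamine-6-phosphate (40 μM to 10 mM) in HEPES/KCl/Mg(OAc)2 buffer was flowed in. Normalised per-tile medians were fit to one- or two-exponential decays for kobs, and kcat and KM came from weighted Michaelis–Menten fits.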

glucosamine-6-phosphate [2] = variants of: B1; assay: self-cleavage kobs at 160 uM GlcN6P; higher = faster cleavage; RNA array
Summary of the method: as §1

glucosamine-6-phosphate [3] = variants of: B1; assay: self-cleavage kobs at 2500 uM GlcN6P; higher = faster cleavage; RNA array
Summary of the method: as §1

glucosamine-6-phosphate [4] = variants of: B1; assay: self-cleavage kobs at 10000 uM GlcN6P; higher = faster cleavage; RNA array
Summary of the method: as §1

Variant	self-cleavage kobs at 640 uM GlcN6P (glucosamine-6-phosphate [1]) [s⁻¹]	self-cleavage kobs at 160 uM GlcN6P (glucosamine-6-phosphate [2]) [s⁻¹]	self-cleavage kobs at 2500 uM GlcN6P (glucosamine-6-phosphate [3]) [s⁻¹]	self-cleavage kobs at 10000 uM GlcN6P (glucosamine-6-phosphate [4]) [s⁻¹]
AUAAAAUCGCCAGAACUACAGAAAUGUAGCUAACGAGGAGCAGGUUUAUCGAACUUUCGUCGGAUGCCUCCAAA [G7U U30C G32A G41C U54C G60U]	< 1e-05	–	–	–
AUAAAAGAGCCAGAACUACAGAAAUGUAGUUGUCGAGGAGGAGGUUUAUCAAAUUUUCGGCGGAUGCCUCCAAA [C8A A33U G51A]	< 1e-05	< 1e-05	–	–
AUAAAAUCGCCAGAACUACAGAAAUGUAGUUGACGAGGAGGAUGUUUAUCGAAUUUUCGGCGGAUGCUUCCAAA [G7U G43U C68U]	< 1e-05	< 1e-05	< 1e-05	< 1e-05
AUAAAAGAGCCAGAACUACAGAAAUGUAGUUGACGAGGAGGAGGUUUAUCGAAUUUUCGGCGGCUGCCUCCAAA [C8A A64C]	< 1e-05	–	< 1e-05	–
AUAAAAGAGCCAGAACUACAGAAAUGUAGUUGACGAGGAGGAGGUUUAUCGAGUUUUAGGCGGAUGCCUCCAAA [C8A A53G C58A]	< 1e-05	–	< 1e-05	–
AUAAAAUCGCCAGAACUACAGAAAUGUAGUUGACGAGGAGGAGGUUUAUCGAAUUUUCAGCGGAUGCCUCCAAA [G7U G59A]	< 1e-05	< 1e-05	< 1e-05	< 1e-05
AUAAAAGACCCAGAACUACAGAAAUGUAGUUGACGACGAGGAGGUUUAUCGAAUUUUCGGCGGAUGCCUCCAAA [C8A G9C G37C]	< 1e-05	–	–	–
AUAAAAGAGACAGAACUACAGAAAUGUAGUUGACGAGGAGGAGGUUUAUCGAAUUUUUGGCGGAUGCCUCCAAA [C8A C10A C58U]	< 1e-05	–	–	–
AUAAAAGAGCCAGAACUACAGAAAUGUAGUUGACGAGGAGGAGGUUUAUCGAUUUUUCGGCGGAUGCUUCCAAA [C8A A53U C68U]	< 1e-05	–	–	–
AUAAAAGAGCCAGAAAUACAGAAAUGUAGUUGACGAGGAGCAGGUUUAACGAAUUUUCGGCGGAAGCCUGCAAA [C8A C16A G41C U49A U65A C70G]	< 1e-05	–	< 1e-05	–
AUAAAAGAGCCCGAACUACAGAAAUGUAGUUGACGAGGAGGAGGUUUAUCGAAUUUUCGGCGGAUGCCUCCAAA [C8A A12C]	< 1e-05	< 1e-05	< 1e-05	< 1e-05
AUAAAAGAGCCAGAACUACAGAAAUGUAGUUGCCGAGGAGGAGGUUUAUCGAAUUUUUGGCGGAUGCCUCCAAA [C8A A33C C58U]	< 1e-05	–	< 1e-05	–
AUAAAAUCGCCAGAACUACAGAAAUGUAGUUGACGAGGAGGAGGUUUAUCGAAUUUUCGGCGCAUGCCUCCAAA [G7U G63C]	< 1e-05	< 1e-05	< 1e-05	–
AUAAAAGAGCCAGGACUACAGAAAUGUAAUUGACGUGGAGGAGGUUUAUCGAAUUUUCGGCGGAUGCCUCCAAA [C8A A14G G29A A36U]	< 1e-05	–	< 1e-05	–
AUAAAAGAGCCAGAACUACAGAAAUGUAGUUGACGAGGAGGAGGUUUAUUGAAUUUUCGGCGGAUGCCUCCAAA [C8A C50U]	< 1e-05	< 1e-05	< 1e-05	< 1e-05
AUAAAAGAGCCAGAACUACAGAAAUGUAGUUGACGAGGAGGAGGUUUAUCGAUUGUUCGGCGGAUGCCUCCAAA [C8A A53U U55G]	< 1e-05	< 1e-05	–	–
AUAAAAUCGCCAGAACUACAGAAAUGUAGUUGACGAGGAGGAGGUUUAUCGAAUUUCCGGCGGAUGCCUCUAAA [G7U U57C C71U]	< 1e-05	–	< 1e-05	–
AUAAAAGAGCCCGAACUACAGAAAUGUAGUUGACGAGGAGGAGUUUUAUCGAAUUUUCGGCGGAUGCCUCCAAA [C8A A12C G44U]	< 1e-05	< 1e-05	< 1e-05	–
AUAAAAGAGCCAGCACUACAGAAAUGUAGUUGAGGAGGCGGAGGUUUAUCGAAUUUUCGGCGGAUGCCUCCAAA [C8A A14C C34G A39C]	< 1e-05	–	< 1e-05	< 1e-05
AUAAAAUCGCCAGAACUACAGAAAUGUAGUUGACGAGGAGGAGGUUUAUCUAAUUUUCGGCGGAUGCCUCCAAA [G7U G51U]	< 1e-05	< 1e-05	< 1e-05	< 1e-05
AUAAAAGAGCCAGAACUACAGAAAUGUAGUUGACGAGGAGGAGGUUUAUCGGAUUUUCGGCGGAUGCCUCCAAA [C8A A52G]	< 1e-05	–	< 1e-05	–
AUAAAAGAGCAAGAACUACAGAAAUGUAGUUGACGAGGUGGAGGUUUAUCGAAUUUUCGGCGGAUGCCUCCAAA [C8A C11A A39U]	< 1e-05	–	< 1e-05	–
AUAAAAUCGCCAGAACUACAGAAAUGUAGUUGACGAGGAGGAGGUUUAGCGAAUUUUCGGCGGAUGCCUCCAAA [G7U U49G]	< 1e-05	< 1e-05	< 1e-05	< 1e-05
AUAAAAUCGCCAGAACUACAGAAAUGUAGUUGACGAGGAGGAGGUUUAUCGAAGUUUCGGCGGAUGCCUCCAAA [G7U U54G]	< 1e-05	< 1e-05	< 1e-05	< 1e-05
AUAAAAGAGCCAGAACUACAGAAAUGUAGUUGUCAAGGAGGAGGUUUAUCGAAUUUUCGGCGGAUGCCUCCAAA [C8A A33U G35A]	< 1e-05	< 1e-05	< 1e-05	–
AUAAAAUCGCCAGAACUACAGAAAUGUAGUUGACGAGGAGGAGGUUUAUCGAAUAUUCGGCGGAUGCCUCCAAA [G7U U55A]	< 1e-05	< 1e-05	–	–
AUAAAAUCGCCAGAACUACAGAAAUGUAGUUGACGAGGAGGAGGUUUAUCGAAUUUUCGGCAGAUGACUCCAAA [G7U G62A C67A]	< 1e-05	< 1e-05	< 1e-05	–
AUAAAAGAGCCAGAUCUACAGAAAUGUAGUUGACGAGGAGGAGGUUUAUCGAAUUUUCGGCGCAUGCCUCCAAA [C8A A15U G63C]	< 1e-05	< 1e-05	–	–
AUAAAAGAGUCAGAACUACAGAAAUGUAGUUGACGAGGAGGAGGUUUAUCGAAUCUUCGGCGGUUGCCUCCAAA [C8A C10U U55C A64U]	< 1e-05	< 1e-05	< 1e-05	–
